The CheMixHub viscosity set
Several values for one entry are separate records, joined by “and”; a condition that tells them apart may be missing. Equal values may be shown once. The source gives many values for each of these; only a part stands here.

Experiment: xn = mol fraction of the nth substance listed
Conditions: 101 kPa

[Br-].[Li+] + O
Conditions	viscosity
293.15 K, x1 = 0.05	1.33 mPa·s
293.55 K, x1 = 0.05	1.32 mPa·s
295.35 K, x1 = 0.1	2.07 mPa·s
295.75 K, x1 = 0.1	2.02 mPa·s
296.75 K, x1 = 0.05	1.24 mPa·s
297.25 K, x1 = 0.05	1.22 mPa·s
298.15 K, x1 = 0.05	1.188 mPa·s
298.15 K, x1 = 0.08	1.478 mPa·s
298.15 K, x1 = 0.1	1.989 mPa·s
298.15 K, x1 = 0.2	3.254 mPa·s and 7.791 mPa·s and 7.79 mPa·s
301.05 K, x1 = 0.175	3.25 mPa·s
303.65 K, x1 = 0.05	1.09 mPa·s
305.55 K, x1 = 0.1	1.71 mPa·s
308.75 K, x1 = 0.05	0.981 mPa·s
309.85 K, x1 = 0.175	2.73 mPa·s
312.35 K, x1 = 0.1	1.57 mPa·s
312.65 K, x1 = 0.05	0.92 mPa·s
312.65 K, x1 = 0.08	1.12 mPa·s
313.15 K, x1 = 0.16	2.05 mPa·s
313.15 K, x1 = 0.19	2.7 mPa·s
313.15 K, x1 = 0.2	2.28 mPa·s and 3.18 mPa·s and 5.38 mPa·s
313.15 K, x1 = 0.22	3.98 mPa·s
313.15 K, x1 = 0.24	5.01 mPa·s
313.15 K, x1 = 0.25	6.3 mPa·s
313.95 K, x1 = 0.05	0.896 mPa·s
315.15 K, x1 = 0.2	2.4 mPa·s
315.35 K, x1 = 0.175	2.46 mPa·s
315.95 K, x1 = 0.1	1.46 mPa·s
318.85 K, x1 = 0.175	2.34 mPa·s
320.85 K, x1 = 0.1	1.39 mPa·s
322.45 K, x1 = 0.08	0.96 mPa·s
322.55 K, x1 = 0.05	0.785 mPa·s
323.15 K, x1 = 0.1	1.01 mPa·s
323.15 K, x1 = 0.12	1.18 mPa·s
323.15 K, x1 = 0.14	1.32 mPa·s
323.15 K, x1 = 0.15	1.46 mPa·s
323.15 K, x1 = 0.16	1.75 mPa·s
323.15 K, x1 = 0.19	2.25 mPa·s
323.15 K, x1 = 0.2	1.91 mPa·s and 2.61 mPa·s
323.15 K, x1 = 0.22	3.24 mPa·s
323.15 K, x1 = 0.24	4.04 mPa·s
323.15 K, x1 = 0.25	5.05 mPa·s
